Data as given in PubChem BioAssay AID686979 (National Center for Advancing Translational Sciences (NCATS), 2013).
Out of some 420,000 compounds screened, about 50,000 (12%) were called active. Inconclusive means that the source gave no clear call. Such entries were picked first, then a sample of the others. Calls follow the shape of the dose curve; as a rule, active = well fitted inhibition curve with a large enough effect; inconclusive = small, poorly fitted or top-dose-only effect; inactive = flat fitted curve, though single readings scatter. No potency is given beside an inconclusive call; the fits are too rough.

Assay: qHTS for Inhibitors of human tyrosyl-DNA phosphodiesterase 1 (TDP1): qHTS in cells in presence of CPT; also: nearly all actives have a fitted effect of over 55% in size
Conditions: chicken DT40 Tdp1-/-;hTDP1 cells + 20 nM CPT, ATP luminescence, 48 h; activity change, negative = growth inhibition: at 46.2 µM (top of the series)
How it was run: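 Chicken DT40 Tdp1-/- cells stably complemented with human TDP1 were seeded at 400 cells/well in medium containing 20 nM camptothecin, exposed to pin-transferred compounds, and grown at 37 °C for at least 48 hr. Viability was read as ATP luminescence.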
% is scaled to controls: 0 for no effect and ±100 for the full control effect; potency is read from the fitted curve at half-maximal effect; tags tell the direction and shape of the fitted curve.

SMILES	Potency	activity change, negative = growth inhibition
OC[C@@H]1CN(Cc2cccc(C(F)(F)F)c2)C[C@H](n2cnc3c(NCc4ccncc4)ncnc32)O1	inconclusive [inhibitor, single point]	–
Cn1ncc([N+](=O)[O-])c1C(=O)Nc1nc2ccccc2n1CCN1CCCCC1	–	inactive: -19.7%
CCOC(=O)Cc1c(C)nc2c(-c3ccccc3)c(-c3ccccc3)[nH]n2c1=O	inconclusive [inhibitor, partial curve, poor fit]	–
OC(c1ccccc1)C(CN1CCOCC1)c1ccccc1 (configuration not stated)	inconclusive [inhibitor, single point]	–
Cc1ccc(N2Cc3ccccc3C2=O)cc1	inconclusive [inhibitor, single point]	–
CCC(C)(C(=O)Nc1ccccc1C)N(C(=O)CNC(C)=O)c1ccc(C)cc1 (configuration not stated)	–	inactive: 2.25%
O=C(COC(=O)c1c[nH]c2ccccc12)NC1CCCCC1	–	inactive: 0.548%
CC12CC3OC3CC1CCC1C2CCC2(C)C1CCC21OCCO1 (configuration not stated)	inconclusive [inhibitor, single point]	–
O=C(CCC1CCCC1)Nc1nnc(-c2ccc3c(c2)OCO3)s1	inconclusive [inhibitor, single point]	–
C=C1C=C(C(F)F)n2ncc(C(=O)NCc3ccc(OC)c(OC)c3)c2N1	inconclusive [inhibitor, single point]	–
CCc1ccccc1NC(=O)N1CCc2cc(OC)c(OC)cc2C1CC(=O)OC (configuration not stated)	inconclusive [inhibitor, single point]	–
Cc1ccc(Cl)cc1N1CCN(C(=O)CCCn2c(=O)c3cccn3c3cccnc32)CC1	inconclusive [inhibitor, single point]	–
O=C1N(Cc2ccccc2)c2ccccc2C12OCCO2	–	inactive: -1.03%
Cc1c(Cl)cccc1-n1c(SCC(=O)NCc2cccs2)nnc1-c1ccncc1	–	inactive: -14.9%
CCN(CC)S(=O)(=O)c1ccc(Cl)c(NC2=NCCCCC2)c1	–	inactive: -7.76%
O=C(O)CCN1C(=O)C2C3C=CC(C2C1=O)C1C(=O)N(CCC(=O)O)C(=O)C31 (configuration not stated)	–	inactive: 6.61%
O=C(NC1CCCCC1)C(c1cccnc1)N(C(=O)CCl)c1ccccc1Cl (configuration not stated)	inconclusive [inhibitor, single point]	–
CCOc1ccc(S(=O)(=O)N(CC(=O)NCc2ccncc2)c2ccc(C)cc2)cc1	inconclusive [inhibitor, single point]	–
COc1cccc(NC(=O)COC(=O)CC(NC(N)=O)c2ccc(Cl)cc2)c1 (configuration not stated)	–	inactive: -1.25%
O=S(=O)(Nc1ncccn1)c1ccc(NC(=S)Nc2ccc(Cl)cc2)cc1	inconclusive [inhibitor, single point]	–
O=C(COC(=O)c1ccc(O)cc1)Nc1ccc(OC(F)F)cc1	inconclusive [inhibitor, single point]	–
CCC(C)C(=O)Nc1nnc(SCC(=O)NC(C)(C)C)s1 (configuration not stated)	–	inactive: 2.13%
Cc1ccc(S(=O)(=O)N2C[C@H]3[C@H]4C(=O)N(c5ccccc5)C(=O)[C@H]4C[C@H](OC(=O)Nc4c(C)noc4C)[C@@]3(O)C2)cc1	–	inactive: -27%
O=C(Nc1cccc(NC(=O)C2C3CC4OC(=O)C2C4C3)c1)c1ccccc1 (configuration not stated)	–	inactive: -8.31%

SMILES	Potency	activity change, negative = growth inhibition
Cc1nc2cc(-c3cccc(F)c3)nn2c(C)c1CCC(=O)NC(C)c1ccc2c(c1)OCCO2 (configuration not stated)	active: 16.4 µM	–
Cc1cc(C)cc(-n2c3ccc(NC(=O)Cc4cccc5ccccc45)cc3c(=O)n2C)c1	active: 5.8 µM	–
CC1(C)CC(N2CCN(C(c3ccccc3)c3ccccc3)CC2)=CC(=[N+]2CCCCC2)C1	active: 0.164 µM	–
Cc1cccc(N2CCN(C(=O)CCC(=O)NNc3nc4ccccc4c4nc(C)nn34)CC2C)c1 (configuration not stated)	active: 18.4 µM	–
CCN1/C(=C/c2ccc3cc(C)cc(C)c3[n+]2CC)Sc2cc(C)ccc21	active: 0.651 µM	–
COc1cccc(N(CC(=O)NCCSCc2ccc(C)cc2)S(C)(=O)=O)c1	inconclusive [inhibitor, single point]	–
Cc1ncc2c(c1CNC(=O)c1ccc3c(c1)OCO3)CCN(C(=O)c1noc3c1CCCC3)C2	–	inactive: -0.43% [at 9.04 µM]
O=C1c2cccc3cccc(c23)C(=O)C1(O)O	active: 1.03 µM	–
COc1ccc(OC)c(C(=O)N2CCC(C(=O)c3ccc(F)cc3)CC2)c1	inconclusive [inhibitor, partial curve]	–
CCC1CN(S(=O)(=O)c2ccc3c(c2)NC(=O)CC(=O)N3)c2cc(Cl)ccc2O1 (configuration not stated)	active: 16.4 µM	–
CS(=O)(=O)N(Cc1ccc(C(=O)N2CCc3ccccc3C2)cc1)c1ccccc1	inconclusive [inhibitor, single point]	–
Cc1ccc(N2C(=O)CS(=O)(=O)CC2=O)cc1	–	inactive: -5.53%
CCc1n(CC(O)COCC2CC=CCC2)c2ccccc2[n+]1C (configuration not stated)	inconclusive [inhibitor, single point]	–
O=S(=O)(NCCOc1ccccc1Cl)c1ccc2oc3ccccc3c2c1	–	inactive: -29.2%
CCOC(=O)c1cnc2c(C)c(C)ccc2c1NCCN1CCOCC1	inconclusive [inhibitor, single point]	–
CCN1CCN(c2cc(-c3ccc(F)cc3)c3c(n2)CCCCCC3)CC1	–	inactive: 10.5%
CCC1CCCCN1c1cc(C)nc2cc(-c3cccc(C)c3)nn12 (configuration not stated)	inconclusive [inhibitor, partial curve]	–
O=C(O)c1ccc(C=C(c2nc3ccccc3s2)c2nc3ccccc3s2)cc1	–	inconclusive: -30.8% [inhibitor]
COc1cc(C2c3c(-c4c(C)cc(C)cc4O)n[nH]c3C(=O)N2CCCOC(C)C)cc(OC)c1OC (configuration not stated)	inconclusive [inhibitor, full curve]	–
CCn1c(SCC(=O)N2CCN(c3ccccc3)CC2)nc2c([nH]c3ccccc32)c1=O	active: 14.6 µM	–
O=C(NCC1CCCO1)c1ccccc1-c1nc(-c2ccccc2)no1 (configuration not stated)	–	inactive: 0.834%
Cc1c(C(=O)NCC2CCCO2)oc2ccc(S(=O)(=O)N3CC(C)CC(C)C3)cc12 (configuration not stated)	inconclusive [inhibitor, single point]	–
COc1ccccc1N1CCN(C(=O)c2cc(-c3ccc(F)cc3)[nH]c2C)CC1	inconclusive [inhibitor, single point]	–
Cc1cccc(N2C(=O)N3[C@H](c4ccc(Br)cc4)[C@@H]4C(=O)N(C(C)(C)C)C(=O)[C@@H]4[C@]3(Cc3ccc(Cl)cc3)C2=O)c1	–	inconclusive: -35.1% [inhibitor]

SMILES	Potency	activity change, negative = growth inhibition
CN(Cc1c(F)cccc1Cl)C(=O)c1cc2ccccc2o1	inconclusive [inhibitor, single point]	–
COCCn1c(N)c(C(=O)NS(=O)(=O)c2ccc(C)cc2)c(=O)[nH]c1=O	inconclusive [inhibitor, full curve]	–
CN(C)S(=O)(=O)c1cccc(NC(=S)N/N=C/c2cc(Br)ccc2O)c1	active: 2.59 µM	–
CCN(CC(=O)Nc1ccc(NC(C)=O)cc1)C(=O)CCN1C(=O)c2cccc([N+](=O)[O-])c2C1=O	–	inactive: 9.08%
COc1ccc(N(C(=O)c2ccc(Cl)cc2)S(=O)(=O)c2ccc(C)cc2)cc1	inconclusive [inhibitor, single point]	–
C#CCn1ccc(O)c(Cc2ccccc2)c1=O	inconclusive [inhibitor, single point]	–
COc1ccc(-c2nnc(OC)c3ccccc23)cc1	–	inactive: -25.3%
COc1ccc(CCNC(=O)c2cnn(-c3nccc(-c4ccco4)n3)c2C)cc1	–	inactive: 18.1% [at 9.04 µM]
COc1ccc(N(CC(=O)Nc2ccc3c(c2)OCO3)S(=O)(=O)c2ccc(C)cc2)cc1OC	inconclusive [inhibitor, single point]	–
CSc1ccc(/C=C(/NC(=O)c2ccccc2)C(=O)N2CCN(C)CC2)cc1	–	inactive: -1.6%
Cc1cccc(Nc2nnc(SCC(=O)NCc3cccs3)s2)c1	inconclusive [inhibitor, single point]	–
CC(=O)Nc1ccc(S(=O)(=O)N2CCC(n3cnc4cc(F)ccc43)CC2)cc1	inconclusive [inhibitor, full curve, poor fit]	–
CC(NCC(=O)Nc1ccccc1C(=O)NC1CC1)c1ccc(S(N)(=O)=O)cc1 (configuration not stated)	–	inactive: -12.6%
CC(C)N1C(=O)NC2NC(=O)N(C(C)C)C21 (configuration not stated)	–	inactive: 0.69%
CCOC(=O)C(=Cc1ccc(N(C)C)cc1)C(=O)c1ccccc1	active: 16.4 µM	–
CN(C)C1=NCCN1CC1CCCCCC1	–	inactive: -22.2%
Cc1onc(-c2ccccc2)c1C(=O)Nc1nc(-c2ccc(F)c(F)c2)cs1	–	inconclusive: -32.9% [inhibitor]
CCS(=O)(=O)N1CCN(c2cc3c(cc2[N+](=O)[O-])n(C)c(=O)n3C)CC1	–	inactive: 2.03%
COc1ccc2[nH]c3c(c2c1)CCNC3(C)CCc1ccc(Cl)nc1 (configuration not stated)	–	inconclusive: -31.2% [inhibitor]
C/C(Cl)=C\Cn1c(NCCc2ccccc2)nc2c1c(=O)n(C)c(=O)n2C	active: 0.651 µM	–
COc1ccc(CN(C(=O)/C=C/c2ccccc2Cl)C2CCS(=O)(=O)C2)cc1 (configuration not stated)	inconclusive [inhibitor, single point]	–
Cc1ccc(F)cc1C(=O)N1CCOCC1c1cc(C(=O)Nc2ccccc2)no1 (configuration not stated)	inconclusive [inhibitor, single point]	–
Cc1cc(NC(=O)CSc2c(C)[nH]c3ccccc23)no1	inconclusive [inhibitor, single point]	–
Cc1ccc(C(=O)NC2CCN(CCCC(=O)c3ccc(F)cc3)CC2)cc1	–	inactive: -18.5%
